Experimental data reported in the supplement of paper PMC8728848.
Some of the results follow.

Assays:
Assay in all cases: glycan array binding signal (z-score within array); higher = stronger binding
Conditions in all cases: glycan notation: IUPAC condensed, linker removed
[1] = target: Gal(b1-3)GlcNAc(b1-2)Man(a1-3)[Gal(b1-3)GlcNAc(b1-2)Man(a1-6)]Man(b1-4)GlcNAc(b1-4)[Fuc(a1-6)]GlcNAc
Summary of the method: (§1)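 Glycan array data came from 3228 arrays in the Consortium for Functional Glycomics database, and only arrays with an available protein sequence were kept. Glycan names were put into IUPAC-condensed notation, and columns mapping to the same glycan were averaged. The binding signal is a within-array Z-score, averaged across arrays of one protein sequence run at different concentrations or buffers and across linkers. A negative Z-score can be read as non-binding.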

[2] = target: Gal(b1-3)GlcNAc(b1-2)Man(a1-3)[GlcNAc(b1-4)][Gal(b1-3)GlcNAc(b1-2)Man(a1-6)]Man(b1-4)GlcNAc(b1-4)GlcNAc
Summary of the method: as §1

[3] = target: Gal(b1-3)GlcNAc(b1-2)[Gal(b1-3)GlcNAc(b1-6)]Man(a1-6)[Gal(b1-3)GlcNAc(b1-2)Man(a1-3)]Man(b1-4)GlcNAc(b1-4)GlcNAc
Summary of the method: as §1

[4] = target: Gal(b1-3)GlcNAc(b1-3)Gal(b1-3)GlcNAc
Summary of the method: as §1

[5] = target: Gal(b1-3)GlcNAc(b1-3)Gal(b1-4)Glc
Summary of the method: as §1

[6] = target: Gal(b1-3)GlcNAc(b1-3)Gal(b1-4)GlcNAc
Summary of the method: as §1

[7] = target: Gal(b1-3)GlcNAc(b1-3)Gal(b1-4)GlcNAc(b1-2)Man(a1-3)[Gal(b1-3)GlcNAc(b1-3)Gal(b1-4)GlcNAc(b1-2)Man(a1-6)]Man(b1-4)GlcNAc(b1-4)GlcNAc
Summary of the method: as §1

[8] = target: Gal(b1-3)GlcNAc(b1-3)Gal(b1-4)GlcNAc(b1-2)[Gal(b1-3)GlcNAc(b1-3)Gal(b1-4)GlcNAc(b1-6)]Man(a1-6)[Gal(b1-3)GlcNAc(b1-3)Gal(b1-4)GlcNAc(b1-2)Man(a1-3)]Man(b1-4)GlcNAc(b1-4)[Fuc(a1-6)]GlcNAc
Summary of the method: as §1

[9] = target: Gal(b1-3)GlcNAc(b1-3)Gal(b1-4)GlcNAc(b1-3)Gal(b1-4)GlcNAc(b1-2)[Gal(b1-3)GlcNAc(b1-3)Gal(b1-4)GlcNAc(b1-3)Gal(b1-4)GlcNAc(b1-6)]Man(a1-6)[Gal(b1-3)GlcNAc(b1-3)Gal(b1-4)GlcNAc(b1-3)Gal(b1-4)GlcNAc(b1-2)Man(a1-3)]Man(b1-4)GlcNAc(b1-4)[Fuc(a1-6)]GlcNAc
Summary of the method: as §1

[10] = target: Gal(b1-3)GlcNAc(b1-3)Gal(b1-4)GlcNAc(b1-6)[Gal(b1-3)GlcNAc(b1-3)]Gal(b1-4)Glc
Summary of the method: as §1

[11] = target: Gal(b1-3)GlcNAc(b1-3)Gal(b1-4)[Fuc(a1-3)]GlcNAc
Summary of the method: as §1

[12] = target: Gal(b1-3)GlcNAc(b1-3)Gal(b1-4)[Fuc(a1-3)]GlcNAc(b1-6)[Gal(b1-3)GlcNAc(b1-3)]Gal(b1-4)Glc
Summary of the method: as §1

[13] = target: Gal(b1-3)GlcNAc(b1-3)GalNAc
Summary of the method: as §1

[14] = target: Gal(b1-3)GlcNAc(b1-6)Gal(b1-4)GlcNAc
Summary of the method: as §1

[15] = target: Gal(b1-3)GlcNAc(b1-6)GalNAc
Summary of the method: as §1

[16] = target: Gal(b1-3)GlcNAc(b1-6)[Gal(b1-3)]GalNAc
Summary of the method: as §1

Gal(b1-3)GlcNAc6S = target: Gal(b1-3)GlcNAc6S
Summary of the method: as §1

[17] = target: Gal(b1-3)[Fuc(a1-4)]GlcNAc
Summary of the method: as §1

[18] = target: Gal(b1-3)[Fuc(a1-4)]GlcNAc(b1-2)Man
Summary of the method: as §1

[19] = target: Gal(b1-3)[Fuc(a1-4)]GlcNAc(b1-2)Man(a1-3)[Gal(b1-3)[Fuc(a1-4)]GlcNAc(b1-2)Man(a1-6)]Man(b1-4)GlcNAc(b1-4)[Fuc(a1-6)]GlcNAc
Summary of the method: as §1

[20] = target: Gal(b1-3)[Fuc(a1-4)]GlcNAc(b1-3)Gal(b1-3)[Fuc(a1-4)]GlcNAc
Summary of the method: as §1

[21] = target: Gal(b1-3)[Fuc(a1-4)]GlcNAc(b1-3)Gal(b1-4)[Fuc(a1-3)]GlcNAc
Summary of the method: as §1

[22] = target: Gal(b1-3)[Fuc(a1-4)]GlcNAc(b1-6)GalNAc
Summary of the method: as §1

[23] = target: Gal(b1-3)[GlcNAc(b1-6)]GalNAc
Summary of the method: as §1

[24] = target: Gal(b1-3)[Neu5Ac(a2-6)]GalNAc
Summary of the method: as §1

[25] = target: Gal(b1-3)[Neu5Ac(a2-6)]GlcNAc(b1-4)Gal(b1-4)Glc
Summary of the method: as §1

[26] = target: Gal(b1-3)[Neu5Ac(b2-6)]GalNAc
Summary of the method: as §1

Gal(b1-4)Gal = target: Gal(b1-4)Gal
Summary of the method: as §1

[27] = target: Gal(b1-4)GalNAc(a1-3)[Fuc(a1-2)]Gal(b1-4)GlcNAc
Summary of the method: as §1

[28] = target: Gal(b1-4)GalNAc(b1-3)[Fuc(a1-2)]Gal(b1-4)GlcNAc
Summary of the method: as §1

Gal(b1-4)Glc = target: Gal(b1-4)Glc
Summary of the method: as §1

Gal(b1-4)Glc6S = target: Gal(b1-4)Glc6S
Summary of the method: as §1

Gal(b1-4)GlcNAc = target: Gal(b1-4)GlcNAc
Summary of the method: as §1

[29] = target: Gal(b1-4)GlcNAc(a1-6)Gal(b1-4)GlcNAc
Summary of the method: as §1

Gal(b1-4)GlcNAc(b1-2)Man = target: Gal(b1-4)GlcNAc(b1-2)Man
Summary of the method: as §1

[30] = target: Gal(b1-4)GlcNAc(b1-2)Man(a1-3)Man(b1-4)GlcNAc(b1-4)GlcNAc
Summary of the method: as §1

[31] = target: Gal(b1-4)GlcNAc(b1-2)Man(a1-3)[Gal(b1-4)GlcNAc(b1-2)Man(a1-6)]Man(b1-4)GlcNAc(b1-4)GlcNAc
Summary of the method: as §1

B1: Tamarinin (protein)
chain: CDDSARAGNIVVYWGQGGSDNSEGSLKEACKSGHYNMIVLQQLIVYDDGRDPDLNLGAHCSDCTKLEEQIKYCQNKDIKILLQIGQVVPTQEDVKDVTKNLSEYLLKNFFSGKSGPLGEVYLNGIDIASVPEGNNLKFDELVEALNDSSTERRIYLSASPLCVYPDYYLNKAIQTEKLDFLFVQFFYQNPCIYTEGNPENLFEAMKTWTKNVPESMIFMALPATPNLDGYIPPRVLNKEILPAVSEASNFAGVMIFDRYFDRFRKYSSKIK
glycan array binding signal (z-score) [1]: -0.025 | glycan array binding signal (z-score) [2]: 1.66 | glycan array binding signal (z-score) [3]: 0.649 | glycan array binding signal (z-score) [4]: -0.135 | glycan array binding signal (z-score) [5]: 2.34 | glycan array binding signal (z-score) [6]: -0.389 | glycan array binding signal (z-score) [7]: 0.563 | glycan array binding signal (z-score) [8]: -0.078 | glycan array binding signal (z-score) [9]: 4.61 | glycan array binding signal (z-score) [10]: -0.383 | glycan array binding signal (z-score) [11]: -0.347 | glycan array binding signal (z-score) [12]: -0.427 | glycan array binding signal (z-score) [13]: -0.079 | glycan array binding signal (z-score) [14]: -0.377 | glycan array binding signal (z-score) [15]: -0.441 | glycan array binding signal (z-score) [16]: 1.22 | glycan array binding signal (z-score) (Gal(b1-3)GlcNAc6S): -0.277 | glycan array binding signal (z-score) [17]: -0.206 | glycan array binding signal (z-score) [18]: 1.45 | glycan array binding signal (z-score) [19]: 3.52 | glycan array binding signal (z-score) [20]: -0.394 | glycan array binding signal (z-score) [21]: -0.077 | glycan array binding signal (z-score) [22]: -0.371 | glycan array binding signal (z-score) [23]: -0.109 | glycan array binding signal (z-score) [24]: -0.292 | glycan array binding signal (z-score) [25]: 2.92 | glycan array binding signal (z-score) [26]: -0.455 | glycan array binding signal (z-score) (Gal(b1-4)Gal): 0.396 | glycan array binding signal (z-score) [27]: -0.488 | glycan array binding signal (z-score) [28]: -0.549 | glycan array binding signal (z-score) (Gal(b1-4)Glc): -0.115 | glycan array binding signal (z-score) (Gal(b1-4)Glc6S): -0.251 | glycan array binding signal (z-score) (Gal(b1-4)GlcNAc): -0.352 | glycan array binding signal (z-score) [29]: -0.35 | glycan array binding signal (z-score) (Gal(b1-4)GlcNAc(b1-2)Man): 1.22 | glycan array binding signal (z-score) [30]: -0.166 | glycan array binding signal (z-score) [31]: -0.431
